Measurements reported in PubChem BioAssay AID651820 (National Center for Advancing Translational Sciences (NCATS), 2012).
Screen size: about 340,000 compounds; about 12,000 (3.5%) were called active. Inconclusive means that the source gave no clear call. Such entries were picked first, then a sample of the others. The call rests on the fitted dose curve; in most records, active means well fitted inhibition curve with a large enough effect; inconclusive means small, poorly fitted or top-dose-only effect, or another doubt; inactive means no such curve, though single readings can be large or run the other way. Potencies of inconclusive entries are left out as doubtful fits.

experiment: qHTS Assay for Inhibitors of Hepatitis C Virus (HCV); conditions: Huh7.5.1 HCVcc-Cre (HCVcc is cell-culture hepatitis C virus) infection, luciferase reporter, 44 h; activity change, negative = inhibition: at 41.8 µM (top of the series) unless noted
Procedure, shortened: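 Infectious HCVcc-Cre (~0.5 moi) was added to cells just after compound, with cells seeded 4 h earlier at 1,000 per well. Luciferase activity after 44 h culture reported infection; substrate was incubated 15 min at room temperature before reading.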
On the % scale 0 is the no-effect control and ±100 the full control effect; potency means the concentration at half of the fitted maximal effect; tags describe the fitted curve by direction and shape.

SMILES | Potency | activity change, negative = inhibition
Cc1ccc(Cn2c(SCC(=O)NCc3ccco3)nc3ccsc3c2=O)cc1 | active: 4.47 µM | 
CCCCn1c(SCC(=O)NCc2ccc3c(c2)OCO3)nnc1C(CC)N(C)C (stereo not drawn) | inactive | 
CN(Cc1c(F)cccc1Cl)C(=O)c1cccc(S(=O)(=O)N2CCN(Cc3ccccc3)CC2)c1 | inconclusive [inhibitor, single point] | 
O=C(CCCN1C(=O)/C(=C/c2ccccc2Cl)SC1=S)NNC(=O)c1ccncc1 | inactive | 
COC(=O)c1ccsc1NC(=O)CS(=O)(=O)c1ccccc1 | inconclusive [inhibitor, single point] | 
CN(Cc1cccc(Cl)c1)C(=O)C1CCN(C(=O)Nc2ccccc2)CC1 | inconclusive [inhibitor, partial curve] | 
COc1ccc([N+](=O)[O-])cc1NC(=O)c1ccco1 | inconclusive [inhibitor, partial curve] | 
CC(=O)Nc1cc2c(cc1NC(=O)Cn1nc(-c3ccc4c(c3)OCCO4)ccc1=O)OCCO2 | inconclusive [inhibitor, single point] | 
Cc1ccc(C)c(S(=O)(=O)N2CCN(CC(=O)Nc3ccc4c(c3)CCC4)CC2)c1 | inconclusive [inhibitor, single point] | 
O=C1c2cccnc2C(=O)N1Cc1ccccc1 | inconclusive [inhibitor, partial curve] | 
Cc1nn2c(N3CCN(C4CCCC4)CC3)cc(C(C)(C)C)nc2c1-c1ccccc1 | inactive | 
Cc1onc(C(=O)N2C(C)CCCC2C)c1[N+](=O)[O-] (stereo not drawn) | inactive | 
CN(C)C(=O)Oc1ccc(-c2nnco2)cc1 | inactive | 
Cc1cccc2sc(NC(=O)CN(C)S(=O)(=O)c3cccs3)nc12 | inactive | 
COc1ccc(OC)c(C(c2nnnn2C2CCCC2)N2CCc3ccccc3C2)c1 (stereo not drawn) | active: 11.2 µM | 
CCOC(=O)C1=C(O)/C(=C/c2cn(CC(=O)N3CCCC3)c3ccccc23)SC1=Nc1ccccc1 | active: 11.2 µM | 
CCc1ccc(C(C)NC(=S)NCc2ccc(F)cc2)cc1 (stereo not drawn) | inconclusive [inhibitor, single point] | 
CC(OC(=O)CNC(=O)c1sc2ccccc2c1Cl)c1ccccc1 (stereo not drawn) | inactive | 
Nc1c(C(=O)Nc2nc3ccccc3s2)sc2nc(-c3cccs3)ccc12 | inconclusive [inhibitor, single point] | 
CCCCCn1c(N)c(-c2nc3ccccc3s2)c2c([N+](=O)[O-])nn(CC)c(=O)c21 | active: 11.2 µM | 
Cc1c(NC(=S)NC(=O)c2sc3ccccc3c2Cl)cccc1C(=O)O | inactive | 
Nc1ccc(NC(=O)c2ccccc2)c2c1C(=O)c1ccccc1C2=O | inactive | 
O=c1cc(NS(=O)(=O)c2ccccc2)nc(SCc2ccccc2Cl)[nH]1 | inconclusive [inhibitor, partial curve] | 
Cc1cc(/C=C2/SC(=S)N(c3cccc(C(F)(F)F)c3)C2=O)c(C)n1-c1cccnc1 | active: 1.58 µM | 

SMILES | Potency | activity change, negative = inhibition
O=C(C(Cl)c1ccccc1)N1CCOCC1 (stereo not drawn) | inconclusive [inhibitor, partial curve] | 
O=c1cc(O)c(-c2ccc(Cl)c(Cl)c2)c(Cl)[nH]1 | inactive | 
Cc1ccc(NC(=O)ON=C2CCCC2)cc1 | inactive | 
Cc1cc(C(=O)CSc2nc(N)cc(=O)[nH]2)c(C)n1-c1ccc(OC(F)F)cc1 | inconclusive [inhibitor, partial curve] | 
COCCCNC(=O)c1c[nH]c2ccc(S(=O)(=O)N3CCc4ccccc43)cc2c1=O | inconclusive [inhibitor, partial curve] | 
COCCn1c(N2CCCC2)nc2c1c(=O)[nH]c(=O)n2C | inactive | 
Cc1ccc(C(=O)Nc2cc(S(=O)(=O)N3CCOCC3)ccc2N2CCCC2)cc1 | inactive | 
Cc1cccc(/C=N/NC(=O)NC23CC4CC(CC(C4)C2)C3)n1 | inactive | 
CSCC[C@H](NC(=O)C1CCN(S(=O)(=O)c2ccc(C)cc2)CC1)C(=O)NCc1ccco1 | inactive | 
Cc1nc2cc(C(F)(F)F)ccc2n1CCNc1nc(-c2ccc([N+](=O)[O-])c(Cl)c2)cs1 | inconclusive [inhibitor, full curve] | 
COc1ccc(NC(=O)C2CCN(Cc3cnn(-c4ccccc4)c3-n3cccc3)CC2)cc1OC | inconclusive [inhibitor, partial curve] | 
CN(C)c1cccc(C(=O)NNC(=O)CSc2ccccc2)c1 | inactive | 
COc1ccc(-c2nc(-c3ccc(O)cc3O)cs2)cc1OC | inconclusive [inhibitor, single point] | 
COc1ccc(OCCNc2cc(Cl)ccc2[N+](=O)[O-])cc1 | inconclusive [inhibitor, single point] | 
CC(=O)Nc1nc2ccccc2n1Cc1ccccc1C | inconclusive [inhibitor, partial curve, poor fit] | 
COc1ccccc1N1CCN(/N=C/c2cccc(Cl)c2)CC1 | inconclusive [inhibitor, single point] | 
C[C@]12CC(O)C3C(CCC4=CC(=O)CC[C@@]43C)C1CCC2c1csc(-c2ccccc2)n1 (stereo partly drawn) | inconclusive [inhibitor, single point] | 
CC(C)(C)NC(=O)c1cc([N+](=O)[O-])ccc1N1CCCCC1 | inactive | 
c1ccc(Oc2nc(NCc3ccco3)nc(NCc3ccco3)n2)cc1 | inactive | 
Cc1nc(Nc2ccccc2O)c2oc3ccccc3c2n1 | inactive | 
N#CC1c2ccccc2C=CN1C(=O)N(c1ccccc1)c1ccccc1 (stereo not drawn) | inconclusive [inhibitor, single point] | 
O=C(Nc1ccc2ccccc2c1)[C@@H]1C[C@H]1[C@@H](NP(=O)(c1ccccc1)c1ccccc1)c1ccccc1 |  | inactive: -11.2% [at 8.37 µM]
O=C(CSc1ncnc2[nH]ncc12)Nc1nc(-c2ccc(F)c(F)c2)cs1 | inconclusive [inhibitor, single point] | 
COc1ccc(S(=O)(=O)N2CCCCCC2)cc1NC(=O)Cc1ccc(OC)c(OC)c1 | inconclusive [inhibitor, single point] | 
